In the supplement of paper PMC7125110:
± gives the standard error. For some of these results: Variants at the background level are over-represented here.

B1: glmS ribozyme (parent)
chain: AUAAAAGCGCCAGAACUACAGAAAUGUAGUUGACGAGGAGGAGGUUUAUCGAAUUUUCGGCGGAUGCCUCCAAA

Variants of: B1
Assay: self-cleavage kobs at 2500 uM GlcN6P; higher = faster cleavage; RNA array
Details: with glucosamine-6-phosphate
How it was run: (§1)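 kobs was derived by fitting per-tile medians to one- or two-exponential decays after normalising signals to baseline and to non-cleaving reference variants. Those signals came from barcoded ribozyme variants transcribed in situ by E. coli RNA polymerase on sequenced MiSeq chips, followed through a hybridised Cy3 probe at 37 °C and imaged over ~14 h. Glucosamine-6-phosphate (40 μM to 10 mM) in HEPES/KCl/Mg(OAc)2 buffer was flowed in. Weighted Michaelis–Menten fits across concentrations then gave kcat and KM.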

Variant | self-cleavage kobs at 2500 uM GlcN6P [s⁻¹]
AUAAAAGCGCCAGUACUACAGAAAUGUAGUUGACGAGGAGGAGGUUUACCGAAUUUUCGGCGGAUGCCUCUAAA [A14U U49C C71U] | < 1e-05
AUAAAAGCGCCAGACCUACAGAAAUGUAGUUGACGAGGAGGAGGUUUAUCGUAUUUUCGGCUGAUGCCUCCAAA [A15C A52U G62U] | < 1e-05
AUAAAAGCGCCAGCACUACAGAAAUGUAGCUGUCGAGGAGGAGGUUUAUCGAAUUUUCGGCGAAUGCCUCCAAA [A14C U30C A33U G63A] | < 1e-05
AUAAAAGCGCCAGAGCUACAGAAAUGUAGUUGACGAGGCGGAGGAUUAUCGAAUUCUCGGCGGAUGCCUCCAAA [A15G A39C U45A U56C] | 0.000239 ± 5.6e-05
AUAAAAGCGCCAGUACUACAGAAAUGUAGUUGACGAGGACGAGGUUUAUCGAAUUUUCGGCGGAUCCCUCCAAA [A14U G40C G66C] | 9.83e-05 ± 2.2e-05
AUAAAAGCGCCAGCACUACAGAAAUGUAGCUGACGAGGAGGAGGUUUAUCGAAUUUUCGGCGGAUACCUCCAAA [A14C U30C G66A] | < 1e-05
AUAAAAGCGCCAGACCUACAGAAAUGUAGUUGACGAGGAAGAGUUUUAUCGAAUUUUCGGCGGAUGCCUCCAAA [A15C G40A G44U] | < 1e-05
AUAAAAGCGCCAGACCUACAGAAAUGUAGUUGUCGAGGAGGAGGUUUAUCGAAGUUUCGACGGUUGCCUCCAAA [A15C A33U U54G G60A A64U] | < 1e-05
AUAAAAGCGCCAGGAGUACAGAAAUGUAGGUGACGAGGAGGAGGUUUACCGAAAUUUCGGCGGAUGGUUCCAAA [A14G C16G U30G U49C U54A C67G C68U] | < 1e-05
AUAAAAGCGCCAGGACUACAGAAAUGUAGUUGACGAGCUGGAGGUUUAUCGAAUUUUCGACGGAUGCCUCCAAA [A14G G38C A39U G60A] | < 1e-05
AUAAAAGCGCCAGUACUACAGAAAUGUAGUUGACGAGGAUGAGGUUUAUCCAAUUUUCGGCGGAUGCCUCCAAA [A14U G40U G51C] | < 1e-05
AUAAAAGCGCCAGUACUACAGAAAUGUAGUUGACGAGGAGGAGGUUUAACGAAUUUUUGGCGGAUGCCUCCAAA [A14U U49A C58U] | < 1e-05
AUAAAAGCGCCAGGACUACAGAAAUGUAGUUGACUAAGAGGAGGUUUAUCGAAUUUUCGGCGGAUGCCUCCAAA [A14G G35U G37A] | < 1e-05
AUAAAAGCGCCAGAGCUACAGAAAUGUAGUUGAUCAGGAGGAGGUUUAUCGAAUUUUCGGCGGAUGCCUCCAAA [A15G C34U G35C] | < 1e-05
AUAAAAGCGCCAGCACUACAGAAAUGUAGUAGACGAGGAGGAGGUUUAUCGAAUUUACGGCGCAUACCUCCAAA [A14C U31A U57A G63C G66A] | < 1e-05
AUAAAAGCGCCAGACCUACAGAAAUGUAGUUGACGAGGAGGAGGCUUAUGGAAUUUUCGGCGGAUGCUUCCAAA [A15C U45C C50G C68U] | < 1e-05

Variant | self-cleavage kobs at 2500 uM GlcN6P [s⁻¹]
AUAAAAGCGCCAGUACUACAGAAAUGUAGUUGACGAGGAGGAGGUUUAUCGAAUUUUCGGCGGAUCCCUCCAAA [A14U G66C] | 4.36e-05 ± 8e-06
AUAAAAGCGCCAGACCUACAGAAAUGUAGUUGACGAGGACGAGGUUUAUCGUAUUUUCGGCGGAUGCCUCCAAA [A15C G40C A52U] | < 1e-05
AUAAAAGCGCCAGGACUACAGAAAUGUAAUUGACGAGGAGGAGGUUUAUCGAAUUUUCGGCGGAUGCCUGCAAA [A14G G29A C70G] | 0.000126 ± 4e-05
AUAAAAGCGCCAGACCUACAGAAAUGUAGUUGACUAGGAGGAGGUUUAUCGAAUUUUCGGCGGAUGUAUCCAAA [A15C G35U C67U C68A] | < 1e-05
AUAAAAGCGCCAGACCUACAGAAAUGUAGUUGACGAGGAGGAAGUUUAUCGAAUGUUCUGCGGAUGCCUCCAAA [A15C G43A U55G G59U] | < 1e-05
AUAAAAGCGCCAGGACUACAGAAAUGUAGUUGACGAGGAGGAGGUUUAUCGAAUGUUCGGCGGAUUCCUCCAAA [A14G U55G G66U] | 0.00182 ± 0.00038
AUAAAAGCGCCAGGGCUACAGAAAUGUACUAGAGGAGGAGGAUGUUUAUCGAAUUUUCGGCAGAUGCCUCCAAA [A14G A15G G29C U31A C34G G43U G62A] | < 1e-05
AUAAAAGCGCCAGACCUACAGAAAUGUAGUUGACGAGGAGGGGGUUUAUCGAAUUUUCGGCGGAUGCCUGCAAA [A15C A42G C70G] | 7.41e-05 ± 1.9e-05
AUAAAAGCGCCAGUACUACAGAAAUGUAGUUUACGAGGAGGAGGUUUAUCGAAUUUUCGGCGGCUGCCUUCAAA [A14U G32U A64C C70U] | < 1e-05
AUAAAAGCGCCAGUACUACAGAAAUGUAGUUGACGAGGAAGAGGUUUAUCGAAUUUUCGGCGGAUGCGUCCAAA [A14U G40A C68G] | < 1e-05
AUAAAAGCGCCAGGACUACAGAAAUGUAGUUGACGAGGAGGGGGUUUAUCGAAUUUUCGUCGGAUGCCUCGAAA [A14G A42G G60U C71G] | < 1e-05
AUAAAAGCGCCAGUUCUACAGAAAUGUAGUUGACGAGGAGGAGGUUUAUCGAAUUUUCGGCAGGUGCCUCCAAA [A14U A15U G62A A64G] | < 1e-05
AUAAAAGCGCCAGUACUACAGAAAUGUAGUUGACGAGGAGGAGGUUUAUCUAAUUUUCGUCGGAUGCCUCCAAA [A14U G51U G60U] | < 1e-05
AUAAAAGCGCCAGAGCUACAGAAAUGUAAUUGACGGGGAGGAGGUUUAUCGAAUUUUCGGCGGAUGCCUCCAAA [A15G G29A A36G] | < 1e-05
AUAAAAGCGCCAGACCUACAGAAAUGUAGUUGACGAGGAGGAGGUUUAGCGAAUUUUCGGCGGAUGCCUCCAAA [A15C U49G] | 8.06e-05 ± 2.4e-05

Variants of: B1
Assay: self-cleavage kobs at 10000 uM GlcN6P; higher = faster cleavage; RNA array
Details: with glucosamine-6-phosphate
How it was run: as §1

Variant | self-cleavage kobs at 10000 uM GlcN6P [s⁻¹]
AUAAAAGCGCCAGUACUACAGAAAUGUAGUUGACGAGGACGAGGUUUAUCGAAUUUUCGGCGGAUCCCUCCAAA [A14U G40C G66C] | 0.00012 ± 2.4e-05
AUAAAAGCGCCAGGAGUACAGAAAUGUAGGUGACGAGGAGGAGGUUUACCGAAAUUUCGGCGGAUGGUUCCAAA [A14G C16G U30G U49C U54A C67G C68U] | < 1e-05
AUAAAAGCGCCAGUACUACAGAAAUGUAGUUGACGAGGAGGAGGUUUAUCGAAUUUUCGGCGGAUCCCUCCAAA [A14U G66C] | 9.18e-05 ± 1e-05
AUAAAAGCGCCAGGACUACAGAAAUGUAGUUGACGAGGAGGAGGUUUAUCGAAUGUUCGGCGGAUUCCUCCAAA [A14G U55G G66U] | 0.00253 ± 0.00062
AUAAAAGCGCCAGACCUACAGAAAUGUAGUUGACGAGGAGGGGGUUUAUCGAAUUUUCGGCGGAUGCCUGCAAA [A15C A42G C70G] | 4.12e-05 ± 1.7e-05
AUAAAAGCGCCAGAGCUACAGAAAUGUAAUUGACGGGGAGGAGGUUUAUCGAAUUUUCGGCGGAUGCCUCCAAA [A15G G29A A36G] | < 1e-05
